Over roughly 110,000 compounds, “z-score” has its median near -0.1; the highest 2% begin near 2. The list shows a part of the results. Active and inactive are the calls of the source.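 Rule for the calls: active = z-score in the third read window above 3 or below -3; inactive = the rest.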

This experiment addresses Metabotropic glutamate receptor 8 (Rattus norvegicus) (UniProt P70579). Kind of experiment: rat mGluR8 modulators via GIRK flux, primary screen, cell-based, thallium flux, HTS (AID 488969). The conditions noted are these: HEK293 rat mGluR8, GIRK (G protein-gated inwardly rectifying potassium channel) thallium flux, FluoZin2; at 10 µM; stronger effect = higher value; submaximal glutamate (EC20) added with thallium.
Chain of UniProt P70579 (P70579 whole entry, looked up): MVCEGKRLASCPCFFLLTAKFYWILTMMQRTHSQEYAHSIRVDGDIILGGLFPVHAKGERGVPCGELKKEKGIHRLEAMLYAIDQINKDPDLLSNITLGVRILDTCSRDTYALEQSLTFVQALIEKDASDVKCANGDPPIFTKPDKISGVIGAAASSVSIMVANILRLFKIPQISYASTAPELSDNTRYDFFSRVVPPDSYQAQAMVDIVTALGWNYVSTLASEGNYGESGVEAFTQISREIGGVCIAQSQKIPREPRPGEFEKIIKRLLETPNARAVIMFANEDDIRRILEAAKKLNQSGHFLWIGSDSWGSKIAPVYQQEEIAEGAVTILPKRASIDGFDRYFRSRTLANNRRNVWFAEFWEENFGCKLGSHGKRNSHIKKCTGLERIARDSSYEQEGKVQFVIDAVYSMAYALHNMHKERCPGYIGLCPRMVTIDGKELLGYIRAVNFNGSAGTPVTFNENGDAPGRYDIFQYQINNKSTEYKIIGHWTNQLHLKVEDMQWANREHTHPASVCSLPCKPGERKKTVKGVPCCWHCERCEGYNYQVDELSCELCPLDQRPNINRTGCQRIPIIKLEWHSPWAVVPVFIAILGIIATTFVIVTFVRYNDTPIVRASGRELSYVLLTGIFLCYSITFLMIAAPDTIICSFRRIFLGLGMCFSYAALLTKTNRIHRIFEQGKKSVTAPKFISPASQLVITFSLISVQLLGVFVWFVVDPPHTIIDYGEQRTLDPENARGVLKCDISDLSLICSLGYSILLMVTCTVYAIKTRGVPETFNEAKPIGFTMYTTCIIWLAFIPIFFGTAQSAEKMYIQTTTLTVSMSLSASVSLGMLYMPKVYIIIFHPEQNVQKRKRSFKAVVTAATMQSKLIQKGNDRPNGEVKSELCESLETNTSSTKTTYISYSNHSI
In turn, `Cc1c(C2Nc3ccccc3C(=O)N2O)cnn1C` (stereo unspecified) showed a z-score of 0.189.
Consider `CCc1c(C(=O)c2ccc(Cl)cc2)oc2c(C)c3oc(=O)cc(C)c3cc12`, for which the z-score is -1.59.
Regarding `COc1ccc(C(=O)Nc2ccc(N3CCOCC3)cc2)cc1OC`, the z-score was -0.0901.
The value for `O=C(NNC(=O)c1cccnc1)Nc1cccc2ccccc12` was -0.144; that for `CCOc1cc(C(=O)OCC(=O)Nc2c(C)cccc2C)ccc1OCC(=O)N1CCOCC1` was -0.274; that for `CCCC(=O)Nc1ccc(N2CCOCC2)cc1` was 0.225.
For `Cc1ccc(-n2nc(C)c3cc(C(=O)O)sc32)cc1`, the z-score was -0.377.
The value for `COc1ccc(N2CCN(C(=S)NCCc3ccccc3)CC2)cc1` was -0.245; that for `Cc1cc(F)ccc1S(=O)(=O)Nc1ncnc2scc(-c3ccc(F)cc3)c12` was -1; that for `C=CCNC(=S)NNC(=O)c1csc(C)c1C` was -0.26.
In the case of `O=C(/C=C/c1ccccc1)N1CCN(c2ccccn2)CC1`, the z-score is -0.288.
For the compound `Cc1cc(C(=O)NCc2ccccc2)c(=O)[nH]c1C`, the z-score worked out at 0.0221.
Consider `Cc1ccc2cccc(Oc3ncnc4scc(-c5ccc(Cl)cc5)c34)c2n1`, for which the z-score is -0.0666.
The value for `CC(=O)c1c(C)oc2ccc(O)c(CN3CCOCC3)c12` was 0.000118; that for `COCCCNC(=S)NC1CC2CCCC(C1)N2Cc1ccco1` (stereo unspecified) was -0.0727; that for `CCN(CC)C(=O)C(C)N(C#N)c1nc(NC(C)C)nc(NC(C)C)n1` (stereo unspecified) was 0.373.
The value for `COc1cc(COCC(O)CN2CCOCC2)cc(OC)c1OC` (stereo unspecified) was 0.414; that for `Cn1c(=O)c(=O)n(C)c2cc(S(=O)(=O)Nc3ccc4c(c3)OCCO4)ccc21` was -1.23; that for `CCOC(=O)N1CCN(C(=O)C2CC(c3ccc(F)cc3)=NO2)CC1` (stereo unspecified) was 1.96.
Under `COc1nc(OC)nc(N2CCCCCC2)n1` stands 0.193; under `COc1ccc(CNC(=O)C(c2ccco2)N(C(=O)c2csnn2)c2cccc(C)c2C)cc1` (stereo unspecified), 0.695.
Consider `COc1cc(NC(=O)CN(c2cc(C)cc(C)c2)S(=O)(=O)c2c(C)noc2C)cc(OC)c1`, for which the z-score is -0.0897.
Under `CCN(CC)c1c2c(c(C#N)c3nc4ccccc4n13)CCC2` stands -2.55; under `O=C(Nc1c(F)cc(F)cc1Br)c1cccnc1`, 0.116; under `CNC(=O)N(c1ccccc1)c1ccccc1`, 0.234.
For `COc1cccc(-n2ccnc2SCC(=O)N2CCc3ccccc32)c1`, the z-score was -0.163.
In turn, `Cc1ccc(C(=O)COC(=O)CCC(=O)Nc2cccc(Cl)c2)cc1[N+](=O)[O-]` registered a z-score of 0.094.
As to `Nc1ccc(N(c2ccccc2)c2ccc(N)cc2)cc1`, the z-score stood at 0.0499.
The value for `COc1cccc(OC)c1C(=O)Nc1ccc(CN2CCOCC2)cc1` was 0.678; that for `O=C(CSc1cn(Cc2ccccc2)c2ccccc12)N1CCOCC1` was -0.89.
The value for `CC(C)OC(=O)c1c(N)sc2c1CCCC2` was 2.03; that for `Cc1ccc(-c2ccc(/C=N/N=C3/NC(=O)C(CC(=O)O)S3)o2)c([N+](=O)[O-])c1` (stereo unspecified) was -0.36.
The value for `CCOC(=O)c1cnc2ccc(C)cc2c1NCCO` was -0.283; that for `CCCCn1c(=NC(=O)c2ccco2)c(C(=O)OCC)cc2c(=O)n3ccccc3nc21` was -1.49.
Consider `COc1cc(CNCCc2c[nH]c3ccccc23)ccc1OCc1ccc(F)cc1`, for which the z-score is active: 3.41.
In the case of `CCSc1ncc(Cl)c(C(=O)Nc2ccc(S(=O)(=O)Nc3onc(C)c3C)cc2)n1`, the z-score is -1.78.
Under `CCOP(=O)(OCC)C(C)(C)NC(=O)c1cc([N+](=O)[O-])cc([N+](=O)[O-])c1` stands 0.532; under `CCCS(=O)(=O)N1CCC(C(=O)N2CCN(Cc3ccccc3)CC2)CC1`, 0.118; under `CC(=O)c1c(C(C)=O)c(C)n(-c2cccc([N+](=O)[O-])c2)c1C`, -0.308.
As to `O=C(NCCCc1ccccc1)C1CCN(c2nnc(-n3cccc3)s2)CC1`, the z-score is -0.0334.
As for `O=C(c1cc2ccccc2o1)N1CCN(S(=O)(=O)c2cccs2)CC1`, the z-score is -0.157.
On to `O=C(COc1cccc2ccccc12)N/N=C/c1ccc(Sc2nc3ccccc3s2)o1`, for which the z-score came out at 0.351.
For `CCS(=O)(=O)N1CCCC(C(=O)NCC2CCCO2)C1` (stereo unspecified), the z-score was -0.303.
The value for `Cc1cc(C)c2c(=O)[nH]n(C3CCOC(C)(C)C3)c2n1` (stereo unspecified) was -0.311; that for `COc1ccc(C(NC(C)=O)c2c(O)ccc3ccccc23)cc1OC` (stereo unspecified) was 1.73.
As to `O=C1C=CC(=O)N1CCCCCCN1C(=O)C=CC1=O`, the z-score stood at 0.367.
Under `O=C(N/C(=C/c1cccc([N+](=O)[O-])c1)C(=O)N1CCCCCC1)c1cccs1` stands -0.315; under `Cc1c(C(=O)c2no[n+]([O-])c2C(=O)c2cnn(C)c2C)cnn1C`, 0.0604; under `Clc1ccc(-c2nnc(-c3ccccc3)o2)c(Cl)c1`, 0.405.
With `CCn1nc([N+](=O)[O-])c(C(C#N)c2nc3cc(C(F)(F)F)ccc3s2)c(Cl)c1=O` (stereo unspecified), the z-score worked out at 2.97.
`Cc1ccccc1NC(=S)N1CCCC1` displayed a z-score of 0.248.
`CC(=O)c1c(C)[nH]c(C(=O)OCC(=O)Nc2cc(S(=O)(=O)N3CCCC3)ccc2Cl)c1C`: the z-score is 0.262.
In turn, `COc1ccc(CCNS(=O)(=O)c2ccc(N3CCCC3=O)cc2)cc1` yielded a z-score of 0.117.
For the compound `O=C(NCc1ccc(Cl)cc1Cl)c1ccc2nc[nH]c2c1`, the z-score was determined as 0.0902.
As for `Cc1cccc(-c2noc(CN(C(=O)C(c3ccccc3)c3ccccc3)C(C)C)n2)c1`, the z-score is -0.488.
The value for `COC(=O)Cc1n[nH]c(=O)c2ccccc12` was 0.456; that for `Cc1ccc(N(CCCCN2C(=O)c3ccccc3C2=O)C(=O)c2ccc(Cl)s2)cc1` was -0.0355.
Under `O=C1C2CC=C(Cl)CC2C(=O)N1CC1OCCc2ccccc21` (stereo unspecified) stands -0.4; under `O=C(Nc1ccccc1)c1cnc2n(c1=O)CCS2`, -0.146.
Turning to `COC(=O)/C(=C/Nc1ccc(O)cc1)[N+](=O)[O-]`, the z-score is -0.539.
The value for `Cc1ccc(C(C(=O)NC(C)(C)C)N(C(=O)c2csnn2)C2CC2)cc1` (stereo unspecified) was 0.0476; that for `Cc1ccc(-n2cc[nH]c2=S)cc1C` was 1.42; that for `COc1ccc(Cl)cc1S(=O)(=O)N1CCN(C(=O)c2ccco2)CC1` was 0.155.
Under `CCC(Sc1nc(-c2ccccc2)c(C#N)c(=O)[nH]1)C(=O)Nc1nnc(C)s1` (stereo unspecified) stands -0.445; under `CCn1c(SCc2nc(N)nc(N3CCCCC3)n2)nc2c1c(=O)n(C)c(=O)n2C`, 0.023.
The value for `COc1ccc(NC(=O)C2CCCN2C(=O)NC2CCCCC2)cc1OC` (stereo unspecified) was -0.204; that for `Cc1ccc(C(=O)Cn2cnc3ccccc3c2=O)cc1` was 0.192.
Regarding `CC(C)(C)NS(=O)(=O)c1ccc(CCC(=O)NCc2ccco2)cc1`, the z-score was -0.202.
Turning to `CCOC(=O)c1c(N)sc(C(=O)N(C)C)c1C`, the z-score is -1.17.
Take `O=C(Nc1ccccc1)C(c1ccccc1)C1CCCC1` (stereo unspecified): the z-score was -0.474.
Consider `COc1cc(C(=O)NCC(c2cccnc2)N2CCN(c3ccccc3)CC2)cc(OC)c1OC` (stereo unspecified), for which the z-score was -0.219.
The value for `Cc1nn(C)c(C)c1/C=N/NC(=O)C(C)(C)Oc1ccc(Cl)cc1` was -0.101; that for `CCC(CC)NC(=O)c1oc2ccccc2c1COc1ccccc1` was -0.219; that for `Oc1ccc(Oc2ncc(Cl)cc2Cl)cc1` was 0.0122.
The value for `CCOC(=O)c1nn(-c2ccc(C)c(C)c2)c(=O)c2c(N)scc12` was -0.137; that for `CS(=O)(=O)N(CC(=O)NCc1ccc(Cl)cc1)C1CCCCC1` was -0.143; that for `CC(=O)Oc1ccc(C(C)=O)c2c1OCCO2` was -0.119.
Under `CCOC(=O)c1cn(CC(=O)Nc2ccccc2C(=O)OCC)nn1` stands -0.238; under `CN(C)S(=O)(=O)c1cc(S(=O)(=O)N(C)C)c(Cl)cc1N`, -0.0713.
Consider `CCOC(=O)c1[nH]c2ccc(F)cc2c1NC(=O)c1cc(OC)c(OC)c(OC)c1`, for which the z-score is -0.171.
In the case of `CCOC(=O)N1CCN(C(=O)/C(=C/c2ccccc2OC)NC(=O)c2ccccc2)CC1`, the z-score amounted to 0.0249.
As to `CCCNC(=O)NC(=O)COC(=O)c1oc2ccc(OCC)cc2c1C`, the z-score was -0.035.
The value for `CCCn1nnc(NC(=O)C(C)Oc2ccc(Cl)cc2Cl)n1` (stereo unspecified) was -1.49; that for `CCN1CCN(C(=O)C2CCC(CNS(=O)(=O)c3ccccc3)CC2)CC1` (stereo unspecified) was -0.0637; that for `Cc1ccc(S(=O)(=O)NC(=O)c2cc(C)n(-c3ccccc3)c2C)cc1` was 0.152.
Regarding `CC(=O)Nc1nc(C)c(S(N)(=O)=O)s1`, the z-score was -0.798.
Under `Nc1nc(SCC(=O)NC2CCCCCC2)[nH]c(=O)c1-c1ccccc1` stands -0.168.
Regarding `Cc1ccc(-c2nnc(-c3ccncc3)n2-c2ccc(C)cc2)cc1`, the z-score was -0.768.
`c1ccc2cc(-c3csnn3)ccc2c1` had a z-score of 0.8.
The value for `Cc1ccccc1-c1cc(C(=O)Nc2sc(C)c(C)c2C(N)=O)c2ccccc2n1` was -0.19; that for `COc1cccc(/C=C/C(=O)OCC(=O)NCC2CCCO2)c1OC` (stereo unspecified) was -0.054.
The value for `COC(=O)c1c(C(=O)OC)c(C)n(Cc2cccnc2)c1C` was 0.679; that for `O=C1CC(C(=O)O)S/C(=N\NC(=O)c2ccccc2)N1` (stereo unspecified) was 0.0537.
Under `O=C(CNC(=S)N(Cc1ccccc1F)C1CCCCC1)NC1CC1` stands -0.244.
In the case of `CCOc1cc(-c2nc3cc(C)ccn3c2NCC2CCCO2)ccc1O` (stereo unspecified), the z-score was -0.709.
For `Nc1nonc1C(=O)NC(c1ccccc1)c1ccccc1`, the z-score is -0.122.
The value for `CCOC(=O)N1CC=C2C(C#N)=C(N)C(C#N)(C#N)[C@H](c3cccs3)[C@H]2C1` was -0.568; that for `NC(=S)N/N=C/C=C/c1ccccc1` was 0.0971; that for `CCOc1cc(C(=O)O)cc(Cl)c1OCC#N` was -0.377.
Take `O=C(COC(=O)CCc1c[nH]c2ccccc12)Nc1cc([N+](=O)[O-])ccc1Cl`: the z-score is -0.592.
The value for `CC(C)(C)c1ccc(-c2nnc(SCC(=O)c3ccc4c(c3)OCCO4)o2)cc1` was -0.0897.
Take `CCCn1c(SCC(=O)Nc2ccccc2C(=O)OC)nc2c1c(=O)n(C)c(=O)n2C`: the z-score was -1.51.
The value for `Nc1nc(C2CC(=O)OC23CCCCC3)cs1` (stereo unspecified) was 0.0259; that for `N#Cc1cc(C(=O)c2cc(Br)ccc2O)cn(C2CC2)c1=O` was -0.413.
Under `CCOC(=O)/C=C/C(=O)OCC(=O)Nc1ccc(Cl)cn1` stands -0.0462; under `Cc1cc(C(F)F)n2nc(C(=O)Nc3ccc(S(=O)(=O)N4CCCC4)cc3)nc2n1`, -0.187; under `CCCN1CCN(c2nc3c([nH]2)c(=N)ncn3CC(O)CO)CC1` (stereo unspecified), 0.106.
Take `O=C1c2cccc(OCC(=O)N3CCCc4ccccc43)c2CCN1Cc1ccc(F)cc1`: the z-score was -0.144.
Under `COC(=O)c1cc(CSc2nc3ccccc3[nH]2)oc1C` stands -0.389; under `CCC(Sc1ncccc1C(=O)Oc1cccc([N+](=O)[O-])c1)C(=O)Nc1ccccc1OC` (stereo unspecified), -0.0708; under `COC(=O)CN(C(=O)CSc1nnc(-c2cccc(OC)c2)o1)c1ccc(OC)cc1`, -0.667.

These data come from PubChem BioAssay AID488969 (Vanderbilt High Throughput Screening Facility, 2010).
